Measured values: PubChem BioAssay AID720709 (National Center for Advancing Translational Sciences (NCATS), 2013)
Out of some 360,000 compounds screened, about 520 (0.14%) were called active. This list was built around the results that the source calls inconclusive (neither active nor inactive); the mix of calls is not that of the screen. The call rests on the fitted dose curve; in most records, active means well fitted inhibition curve with a large enough effect; inconclusive means small, poorly fitted or top-dose-only effect; inactive means no such curve, though single readings can be large or run the other way. No potency is given beside an inconclusive call; the fits are too rough.

Molecular target: Rap guanine nucleotide exchange factor 3 (Homo sapiens) (UniProt O95398)
Chain of UniProt O95398 (O95398 whole entry, looked up): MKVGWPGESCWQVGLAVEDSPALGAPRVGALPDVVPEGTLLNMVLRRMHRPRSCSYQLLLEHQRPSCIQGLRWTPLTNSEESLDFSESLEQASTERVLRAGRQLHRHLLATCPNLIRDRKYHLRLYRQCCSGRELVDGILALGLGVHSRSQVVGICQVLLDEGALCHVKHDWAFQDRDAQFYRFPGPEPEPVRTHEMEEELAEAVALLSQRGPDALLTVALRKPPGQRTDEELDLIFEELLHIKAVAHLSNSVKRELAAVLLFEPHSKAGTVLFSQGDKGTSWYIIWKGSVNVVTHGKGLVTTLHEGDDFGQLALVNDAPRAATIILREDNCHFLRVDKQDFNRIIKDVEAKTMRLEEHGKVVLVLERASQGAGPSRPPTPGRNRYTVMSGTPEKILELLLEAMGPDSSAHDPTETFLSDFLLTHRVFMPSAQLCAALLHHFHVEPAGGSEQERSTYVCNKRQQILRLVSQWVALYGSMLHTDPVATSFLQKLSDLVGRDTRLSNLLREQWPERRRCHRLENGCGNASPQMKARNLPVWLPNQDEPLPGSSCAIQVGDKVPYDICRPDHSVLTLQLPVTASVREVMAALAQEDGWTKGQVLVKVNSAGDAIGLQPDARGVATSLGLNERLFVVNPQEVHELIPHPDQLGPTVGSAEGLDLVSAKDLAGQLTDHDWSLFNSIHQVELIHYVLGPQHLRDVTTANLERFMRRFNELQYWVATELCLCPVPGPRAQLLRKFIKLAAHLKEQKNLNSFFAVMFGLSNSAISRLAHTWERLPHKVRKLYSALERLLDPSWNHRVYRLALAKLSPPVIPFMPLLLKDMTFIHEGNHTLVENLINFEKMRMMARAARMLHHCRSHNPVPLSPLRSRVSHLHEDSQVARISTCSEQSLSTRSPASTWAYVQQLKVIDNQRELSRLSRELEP
Assay: qHTS for Antagonist of cAMP-regulated guanine nucleotide exchange factor 3 (EPAC1): primary screen; further: nearly all actives have a fitted effect of over 50% in size;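 on activity change, negative = inhibition: plate controls were vehicle for no effect and positive control for full effect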
Settings: EPAC1 GEF assay, Rap1b-BODIPY-GDP exchange fluorescence; activity change, negative = inhibition: at 115 µM (top of the series)
Potency means the concentration at half of the fitted maximal effect; tags describe the fitted curve by direction and shape.

Structure (SMILES)	Potency	activity change, negative = inhibition
CC1(C)OC(=O)N(CCC(=O)Nc2cccc(F)c2)C1(C)O (stereo not drawn)	inconclusive [inhibitor, single point]	–
CC/C(C)=N/Nc1ccc(S(=O)(=O)N2CCCC2)cc1[N+](=O)[O-]	inconclusive [inhibitor, single point]	–
CCS(=O)(=O)NCC(c1cccnc1)N1CCN(c2ccccc2)CC1 (stereo not drawn)	inconclusive [inhibitor, single point]	–
COc1cccc(N=Nc2c(=O)[nH]n3c(=O)c4c([nH]c23)CCC4)c1	inconclusive [inhibitor, single point]	–
OCc1ccccc1SSc1ccccc1CO	inconclusive [inhibitor, single point]	–
CCOC(=O)c1c(NC(N)=O)nc2n1CCC2	inconclusive [inhibitor, partial curve]	–
CSCCOC(=O)c1[nH]c2c(c1C)C(=O)CC(c1ccco1)C2 (stereo not drawn)	inconclusive [inhibitor, full curve, poor fit]	–
COc1cccc(-c2nn(C)c3sc(C(=O)N4CCN(c5ccccn5)CC4)cc23)c1	inconclusive [inhibitor, single point]	–
Cc1ccc(CNC(=O)CN2C(=O)CSc3ccc(S(=O)(=O)N4CCC(C)CC4)cc32)cc1	inconclusive [inhibitor, partial curve, poor fit]	–
O=C(NCc1cccc(Cl)c1)c1ccc(-n2ccnc2)c2ccoc12	inconclusive [inhibitor, partial curve, poor fit]	–
Cc1cc[n+](C2=C([O-])c3ccccc3C(=O)/C2=N\S(=O)(=O)c2cccs2)cc1C	inconclusive [inhibitor, partial curve, poor fit]	–
CCOC(=O)c1cnc(SCc2cccc3ccccc23)nc1N	–	inactive: -7.25%
C=CCOc1c(/C=N\NC(N)=O)cccc1OC	inconclusive [inhibitor, single point]	–
CCC1Cc2[nH]c(=S)[nH]c(=O)c2C(c2ccc(F)cc2)O1 (stereo not drawn)	–	inactive: -3.91%
Cc1ccc(C(C)C)c(OCC(O)CN2CCc3ccccc3C2)c1 (stereo not drawn)	inconclusive [inhibitor, partial curve, poor fit]	–
COc1ccc(C(C)=O)cc1CN1C(=O)C(C)ON=C1c1ccccn1 (stereo not drawn)	–	inactive: 3.33%
Cc1cccc(N2C(=O)/C(=C\c3ccc(OC(F)F)cc3)c3ccccc3C2=O)c1	–	inactive: 5.78%
CCn1c(SCC(=O)OC)nc2sc3c(c2c1=O)CC(C)(C)OC3	inconclusive [inhibitor, partial curve]	–
CCc1ccc(S(=O)(=O)Nc2ccc(-c3nc4cccnc4s3)cc2)s1	inconclusive [inhibitor, partial curve]	–
O=C(/C=C/c1cccc(Cl)c1Cl)OCC(=O)N1CCOCC1	inconclusive [inhibitor, partial curve, poor fit]	–
O=C(COC(=O)c1cccnc1Nc1ccccc1F)NCc1ccc2c(c1)OCO2	inconclusive [inhibitor, partial curve]	–

Structure (SMILES)	Potency	activity change, negative = inhibition
Cn1cc(S(=O)(=O)N2CCNCC2)cc1C(N)=O	–	inactive: 14.9%
COc1cccc(C2C3CN(C)CC=C3C(C#N)=C(N)C2(C#N)C#N)c1OC (stereo not drawn)	–	inactive: -11.1%
N#CCC(=O)Nc1sc2c(c1C(N)=O)CCCC2	inconclusive [inhibitor, partial curve]	–
NNc1nc(C(F)(F)F)nc2ccccc12	–	inactive: 2%
CC(=O)N1CCc2cc(S(=O)(=O)N3CCCCC3C)ccc21 (stereo not drawn)	inconclusive [inhibitor, full curve, poor fit]	–
CCCN1CCN(C(=O)CCc2nnc3ccc(N4CCN(c5cccc(OC)c5)CC4)nn23)CC1	inconclusive [inhibitor, full curve, poor fit]	–
COc1ccc(NS(=O)(=O)c2c(C)[nH]c(C)c2C(=O)N2CCCCC2)cc1Cl	inconclusive [inhibitor, full curve, poor fit]	–
Cc1ccc(-c2nc3cnccn3c2Nc2ccc3c(c2)OCO3)cc1	inconclusive [inhibitor, single point]	–
O=C(O)c1cc(S(=O)(=O)N2CCOCC2)ccc1N1CCCCC1	inconclusive [inhibitor, single point]	–
COc1ccc(C(=O)Nc2ccc3oc(-c4cccc(F)c4)nc3c2)cc1OC	inconclusive [inhibitor, full curve, poor fit]	–
CC(C)(C)c1ccc(C(=O)N2CCC2(C)C(=O)Nc2ccc3nc[nH]c3c2)cc1 (stereo not drawn)	–	inactive: -8.75%
CCCCn1c(N)c(S(=O)(=O)c2ccc(C)cc2)c2nc3ccccc3nc21	inconclusive [inhibitor, single point]	–
CCC(C(=O)OC)n1cnc2c(oc3ccccc32)c1=O (stereo not drawn)	inconclusive [inhibitor, full curve, poor fit]	–
Cc1ccc(NC(=O)Cn2ncc(Cl)c(Cl)c2=O)cc1S(=O)(=O)N1CCCCC1	inconclusive [inhibitor, partial curve]	–
COc1ccc(CN(C)C(=O)CCCNC(=O)c2ccc(Cl)cc2)cc1	inconclusive [inhibitor, partial curve]	–
COc1cccc(N2CCN(C(=O)CCS(=O)(=O)c3ccc4c(c3)oc(=O)n4C)CC2)c1	inconclusive [inhibitor, partial curve, poor fit]	–
Cc1ccc(-n2cccc2/C=C2\C(=N)N3N=C(c4ccco4)SC3=NC2=O)cc1	inconclusive [inhibitor, partial curve, poor fit]	–
Cc1nc2ccccn2c1C(=O)NC1CCCc2ccccc21 (stereo not drawn)	inconclusive [inhibitor, single point]	–
Cc1cc(C2CC(=O)Nc3ccccc3S2)c(C)s1 (stereo not drawn)	inconclusive [inhibitor, partial curve]	–
COC(=O)c1cccc(NC(=O)/C=C/c2ccc([N+](=O)[O-])cc2)c1	–	inactive: -4.11%
O=C(NCCN1CCCCC1)c1cc(COc2c(F)cccc2F)on1	inconclusive [inhibitor, partial curve]	–

Structure (SMILES)	Potency	activity change, negative = inhibition
CCN1CC(O)=C(c2nc3ccccc3s2)C1=N	inconclusive [inhibitor, partial curve]	–
O=C(NCCCC1CCCC1)C1CCC(=O)N(Cc2ccc(Cl)cc2)C1 (stereo not drawn)	inconclusive [inhibitor, partial curve]	–
CCOc1ccc(Cl)cc1-c1cc(C(=O)Nc2ccc(Br)cc2)[nH]n1	inconclusive [inhibitor, partial curve]	–
O=C(CSc1ccc2nnc(-c3ccccn3)n2n1)NCc1ccc2c(c1)OCO2	inconclusive [inhibitor, single point]	–
CS(=O)(=O)c1ccc(C(=O)OCc2nnc(-c3ccc(Cl)cc3)o2)cc1[N+](=O)[O-]	inconclusive [inhibitor, partial curve]	–
Nc1cc2c(cc1Cl)-c1ccccc1C2=NO	inconclusive [inhibitor, full curve, poor fit]	–
O=C(Cc1ccc(F)cc1)N1CCC(N2CCC(C(=O)N3CCOCC3)CC2)CC1	inconclusive [inhibitor, partial curve, poor fit]	–
COc1ccc(S(=O)(=O)N2CCCCC2)cc1NC(=O)CSc1nccn1C	inconclusive [inhibitor, full curve]	–
CC(=O)N1CCN(C(=O)c2cccc(S(=O)(=O)N3c4ccccc4CC3C)c2)CC1 (stereo not drawn)	inconclusive [inhibitor, partial curve, poor fit]	–
CCCNC(=S)N1CCC(Cc2ccccc2)CC1	–	inconclusive: 0.451% [inhibitor]
CCOc1ccccc1NC1c2ccccc2C(=O)N1Cc1ccco1 (stereo not drawn)	–	inactive: 3.3%
O=c1[nH]c2ccccc2nc1/C=C(\O)c1cccs1	–	inactive: 15.7%
CCOC(=O)C1=C(C)N=c2s/c(=C\c3cccc(OCC(=O)O)c3)c(=O)n2C1c1ccccc1 (stereo not drawn)	inconclusive [inhibitor, single point]	–
CSc1ccc(/C=N/NC(=O)CN2CCN(Cc3ccc(Cl)cc3)CC2)cc1	inconclusive [inhibitor, partial curve]	–
O=C(O)CSc1c2c(nc3cc(C(=O)Nc4cccc(C(F)(F)F)c4)ccc13)CCC2	inconclusive [inhibitor, single point]	–
Cc1cc2cc(CNC(=S)Nc3ccc(OC(F)F)cc3)ccc2n1C	inconclusive [inhibitor, full curve, poor fit]	–
O=C(CSc1nnc(-c2ccc(Cl)cc2)n1-c1ccccc1)N/N=C/c1ccccc1C(=O)O	inconclusive [inhibitor, single point]	–
Cc1c(C(=O)N2CCCCC2)c(S(=O)(=O)N2CCN(c3ccc(Cl)cc3)CC2)c(C)n1C	inconclusive [inhibitor, single point]	–
COCCN1Cc2cccc(C(=O)Nc3ccc(S(=O)(=O)N4CCCCCC4)cc3)c2C1=O	inconclusive [inhibitor, single point]	–
CC(C)c1ccc(/C=C/C(=O)NCCCc2ccccc2)cc1	inconclusive [inhibitor, full curve, poor fit]	–
Cc1ccc(N2CCN(c3ncccc3[N+](=O)[O-])CC2)c(C)c1	inconclusive [inhibitor, single point]	–
